# Measured values taken from the supplement of paper PMC9135407.
# “And” between values parts separate entries of the source, which are not always exact repeats. Equal entries are not always repeated. Structures can show the parent of a compound that is named as a salt. The campaign covered roughly 5,800 compounds. About 620 (11%) showed activity.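 Rule for the calls: active = score above a cut-off or among the top three wells of a plate; in these data no inactive exceeds 0.85.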 Only a part is listed here, and it is no random draw.
# Tested on: primary human hepatic stellate cells (donor 1)
# Assay: scaled lipid accumulation score (0 = DMSO-like, 1 = nortriptyline-like); higher = stronger HSC inactivation (lipid re-accumulation), active = hit call of the paper
# Conditions: 48 h
# [1] = library stock concentration: 10 mM
# [2] = library stock concentration: 3.33 mM
# [3] = library stock concentration: 1 mM
compound,measurement,setting,value
CC(N)=NCCCC[C@H](N)C(=O)O [L-N6-(1-Iminoethyl)lysine hydrochloride],scaled lipid accumulation score,[1],inactive: ≤ -0.055
Cn1cc(-c2ccc3ncc(Cc4ccc5ncccc5c4)n3n2)cn1,scaled lipid accumulation score,[2],inactive: ≤ 0
same,scaled lipid accumulation score,[1],inactive: ≤ 0
CN1C(C)(C)CCCC1(C)C [Pempidine tartrate],scaled lipid accumulation score,,inactive: ≤ 0
same,scaled lipid accumulation score,[1],inactive: 0.064
CN(C)CCCN1c2ccccc2CCc2ccccc21.Cl [Imipramine hydrochloride],scaled lipid accumulation score,[1],active: 1.1
CC1(C)Oc2ccc(C#N)cc2[C@@H](N2CCCC2=O)[C@@H]1O [Levcromakalim],scaled lipid accumulation score,[1],inactive: ≤ 0
Cc1onc(-c2c(Cl)cccc2Cl)c1C(=O)N[C@@H]1C(=O)N2[C@@H]1SC(C)(C)[C@@H]2C(=O)O [Dicloxacillin sodium],scaled lipid accumulation score,[1],inactive: ≤ 0
Cc1onc(-c2c(Cl)cccc2Cl)c1C(=O)N[C@@H]1C(=O)N2[C@@H]1SC(C)(C)[C@@H]2C(=O)O,scaled lipid accumulation score,[1],inactive: ≤ 0
Cc1onc(-c2c(Cl)cccc2Cl)c1C(=O)N[C@@H]1C(=O)N2[C@@H]1SC(C)(C)[C@@H]2C(=O)O [Dicloxacillin Sodium],scaled lipid accumulation score,[2],inactive: ≤ 0
same,scaled lipid accumulation score,[1],inactive: 0.136
Cc1onc(-c2c(Cl)cccc2Cl)c1C(=O)N[C@@H]1C(=O)N2[C@@H]1SC(C)(C)[C@@H]2C(=O)O [Dicloxacillin sodium salt],scaled lipid accumulation score,,inactive: ≤ 0
Cc1cc(NC(=O)Nc2ccc(N(C)C)cc2)c2cc(F)cc(F)c2n1,scaled lipid accumulation score,[2],inactive: 0.007
same,scaled lipid accumulation score,[1],inactive: 0.001 and inactive: ≤ -0.006
CCCCC[C@H](O)C/C=C1/C(=O)C[C@H](O)[C@@H]1C/C=C\CCCC(=O)O [.DELTA.12-Prostaglandin D2],scaled lipid accumulation score,[3],inactive: ≤ 0
CN(C)/N=N/c1[nH]cnc1C(N)=O [Dacarbazine],scaled lipid accumulation score,,inactive: 0.09
same,scaled lipid accumulation score,[2],inactive: ≤ 0
same,scaled lipid accumulation score,[1],inactive: ≤ 0
same,scaled lipid accumulation score,library stock concentration: 11 mM,inactive: ≤ 0 and inactive: 0.023
CCCCCCCCc1ccc(-c2ccc(C(=O)O)cc2)cc1,scaled lipid accumulation score,[1],inactive: ≤ 0 and inactive: 0.032
CC[N+](C)(C)Cc1ccccc1Br [Bretylium tosylate],scaled lipid accumulation score,,inactive: ≤ 0
same,scaled lipid accumulation score,library stock concentration: 4.8 mM,inactive: ≤ 0
same,scaled lipid accumulation score,[1],inactive: ≤ 0
Cc1ccc(/C=C2\CNC/C(=C\c3ccc(C)cc3)C2=O)cc1.Cl,scaled lipid accumulation score,[1],active: 1.43
C[N+](C)(C)CCCCCC[N+](C)(C)C [Hexamethonium bromide],scaled lipid accumulation score,[1],inactive: 0.261 and inactive: 0.089
C[N+](C)(C)CCCCCC[N+](C)(C)C [Hexamethonium dichloride],scaled lipid accumulation score,[1],inactive: ≤ -0.07
C[N+](C)(C)CCCCCC[N+](C)(C)C [Hexamethonium dibromide dihydrate],scaled lipid accumulation score,,inactive: ≤ 0
CC1C(=O)OC2C(O)C34C5CC(C(C)(C)C)C36C(OC(=O)C6O)OC4(C(=O)O5)C12O (centres undefined) [Ginkgolide B],scaled lipid accumulation score,[2],inactive: 0.008
same,scaled lipid accumulation score,[1],inactive: ≤ 0 and inactive: ≤ -0.006
CC[C@]1(O)C[C@@H]2CN(CCc3c([nH]c4ccccc34)[C@@](C(=O)OC)(c3cc4c(cc3OC)N(C=O)[C@H]3[C@@](O)(C(=O)OC)[C@H](OC(C)=O)[C@]5(CC)C=CCN6CC[C@]43[C@@H]65)C2)C1.O=S(=O)(O)O,scaled lipid accumulation score,[1],active: 1.47
CC1CC(OC(=O)C(O)c2ccccc2)CC(C)(C)C1 (centres undefined) [Cyclandelate],scaled lipid accumulation score,[2],inactive: ≤ 0
same,scaled lipid accumulation score,[1],inactive: 0.196
CC1CC(OC(=O)C(O)c2ccccc2)CC(C)(C)C1 (centres undefined),scaled lipid accumulation score,[1],inactive: 0.065
O=C(O)c1cccnc1Nc1cccc(C(F)(F)F)c1 [Niflumic acid],scaled lipid accumulation score,,inactive: 0.004
same,scaled lipid accumulation score,[2],inactive: ≤ 0
same,scaled lipid accumulation score,library stock concentration: 7.1 mM,inactive: 0.006
same,scaled lipid accumulation score,[1],inactive: ≤ 0 and inactive: 0.007
same,scaled lipid accumulation score,library stock concentration: 17.7 mM,inactive: ≤ -0.02
O=C(O)c1cccnc1Nc1cccc(C(F)(F)F)c1 [Niflumic Acid],scaled lipid accumulation score,[3],inactive: ≤ 0
O=c1[nH]c2cc(C(F)(F)F)c(N3CCOCC3)cc2n(CP(=O)(O)O)c1=O,scaled lipid accumulation score,[1],inactive: 0.046
Cc1oncc1C(=O)Nc1ccc(C(F)(F)F)cc1 [Leflunomide],scaled lipid accumulation score,,inactive: ≤ 0
same,scaled lipid accumulation score,library stock concentration: 80 uM,inactive: 0.045
same,scaled lipid accumulation score,library stock concentration: 400 uM,inactive: ≤ 0
same,scaled lipid accumulation score,library stock concentration: 2 mM,inactive: ≤ 0
same,scaled lipid accumulation score,[2],inactive: ≤ 0
"Cc1cn(C2C=CC(CO)O2)c(=O)[nH]c1=O (centres undefined) [2',3'-didehydro-3'-deoxythymidine]",scaled lipid accumulation score,[1],inactive: ≤ -0.07
CC#CCOC(=O)c1c(C)nc2sc3c(c2c1N)CCC(O)C3 (centres undefined),scaled lipid accumulation score,[1],active: 0.882
CCOC(=O)[C@H](CCc1ccccc1)N[C@@H](C)C(=O)N1Cc2ccccc2C[C@H]1C(=O)O,scaled lipid accumulation score,[1],inactive: ≤ 0
CCOC(=O)[C@H](CCc1ccccc1)N[C@@H](C)C(=O)N1Cc2ccccc2C[C@H]1C(=O)O [Quinapril HCl],scaled lipid accumulation score,,inactive: ≤ 0
same,scaled lipid accumulation score,[2],inactive: 0.001
same,scaled lipid accumulation score,[1],inactive: 0.013
CCOC(=O)[C@H](CCc1ccccc1)N[C@@H](C)C(=O)N1Cc2ccccc2C[C@H]1C(=O)O [Quinapril hydrochloride],scaled lipid accumulation score,[1],inactive: ≤ -0.027
CCCCCC(O)C=CC1C(O)CC(=O)C1CC=CCCCC(=O)O (centres undefined) [8-iso Prostaglandin E2],scaled lipid accumulation score,[3],inactive: ≤ 0
CC(CCc1ccccc1)NCC(O)c1ccc(O)c(C(N)=O)c1 (centres undefined),scaled lipid accumulation score,[1],inactive: 0.089
CC(CCc1ccccc1)NCC(O)c1ccc(O)c(C(N)=O)c1 (centres undefined) [Labetalol hydrochloride],scaled lipid accumulation score,,inactive: 0.321
same,scaled lipid accumulation score,[1],inactive: 0.546 and inactive: 0.164
CC(CCc1ccccc1)NCC(O)c1ccc(O)c(C(N)=O)c1 (centres undefined) [Labetalol HCl],scaled lipid accumulation score,[2],inactive: ≤ 0
same,scaled lipid accumulation score,[1],inactive: 0.464
CCCCc1ccc(N=CNO)c(C)c1,scaled lipid accumulation score,[3],inactive: 0.03
CC(C)c1ccc2oc3nc(N)c(C(=O)O)cc3c(=O)c2c1,scaled lipid accumulation score,[1],inactive: ≤ 0
NC(=O)c1cc[n+](CC2=C(C(=O)O)N3C(=O)[C@@H](NC(=O)[C@@H](c4ccccc4)S(=O)(=O)[O-])[C@H]3SC2)cc1 [Cefsulodin sodium],scaled lipid accumulation score,library stock concentration: 3.6 mM,inactive: ≤ 0
CC1(C)S[C@@H]2[C@H](NC(=O)[C@H](NC(=O)N3CCNC3=O)c3ccccc3)C(=O)N2[C@H]1C(=O)O [Azlocillin sodium],scaled lipid accumulation score,[1],inactive: ≤ -0.027
CC1(C)S[C@@H]2[C@H](NC(=O)[C@H](NC(=O)N3CCNC3=O)c3ccccc3)C(=O)N2[C@H]1C(=O)O [Azlocillin sodium salt],scaled lipid accumulation score,,inactive: ≤ 0
same,scaled lipid accumulation score,[2],inactive: ≤ 0
same,scaled lipid accumulation score,[1],inactive: ≤ -0.001
CCCCCCc1ccc(O)cc1O.Nc1c2ccccc2nc2ccccc12 [Acrisorcin],scaled lipid accumulation score,library stock concentration: 5.1 mM,inactive: 0.478
same,scaled lipid accumulation score,[1],inactive: 0.591
c1ccc(C(OC2CCN(CCCc3nn[nH]n3)CC2)c2ccccc2)cc1,scaled lipid accumulation score,[3],inactive: ≤ 0
O=C1[C@H](Cc2ccc(O)cc2)N2C(=O)CCN(C(=O)NCc3ccccc3)[C@H]2CN1Cc1cccc2ccccc12,scaled lipid accumulation score,[2],inactive: ≤ 0
same,scaled lipid accumulation score,[1],inactive: 0.29
"CCCCCC(=O)CC[C@@H]1[C@@H](CCCCCCC(=O)O)[C@@H](O)C[C@H]1O [13,14-dihydro-15-keto Prostaglandin F1.alpha.]",scaled lipid accumulation score,[3],inactive: ≤ 0
Cc1cc2c(cc1S(N)(=O)=O)S(=O)(=O)CCC2 [Meticrane],scaled lipid accumulation score,,inactive: 0.086
CC(=O)c1ncc([C@@H](O)[C@H](O)[C@H](O)CO)[nH]1 [2-Acetyl-5-tetrahydroxybutyl Imidazole],scaled lipid accumulation score,[3],inactive: ≤ 0
CC(O)C(=O)O.CC(O)C(=O)O.CN1CCN(c2ccc3nc(-c4c(N)c5c(F)cccc5[nH]c4=O)[nH]c3c2)CC1 [Dovitinib (TKI-258) Dilactic Acid],scaled lipid accumulation score,[2],active: 1.27
Nc1nc2c(ncn2[C@@H]2O[C@H](CO)[C@@H](O)[C@H]2O)c(=O)[nH]1 [Guanosine],scaled lipid accumulation score,[2],inactive: 0.023
same,scaled lipid accumulation score,[1],inactive: 0.11
Clc1cnccn1 [2-Chloropyrazine],scaled lipid accumulation score,,inactive: ≤ 0
"CC(C)OC(=O)[C@H](C)N[P@](=O)(OC[C@H]1O[C@@H](n2ccc(=O)[nH]c2=O)[C@](C)(F)[C@@H]1O)Oc1ccccc1 [Sofosbuvir (PSI-7977, GS-7977)]",scaled lipid accumulation score,[2],inactive: ≤ 0
same,scaled lipid accumulation score,[1],inactive: ≤ 0
O=C(O)/C=C/CCCCCCCCC(=O)O [Traumatic Acid],scaled lipid accumulation score,[3],inactive: ≤ 0
COc1cccc2c1C(=O)c1c(O)c3c(c(O)c1C2=O)C[C@@](O)(C(=O)CO)C[C@@H]3O[C@H]1C[C@H](N)[C@H](O)[C@H](C)O1,scaled lipid accumulation score,[1],inactive: ≤ 0
COc1cccc2c1C(=O)c1c(O)c3c(c(O)c1C2=O)C[C@@](O)(C(=O)CO)C[C@@H]3O[C@H]1C[C@H](N)[C@H](O)[C@H](C)O1 [Doxorubicin],scaled lipid accumulation score,library stock concentration: 8.6 mM,inactive: 0.214
COc1cccc2c1C(=O)c1c(O)c3c(c(O)c1C2=O)C[C@@](O)(C(=O)CO)C[C@@H]3O[C@H]1C[C@H](N)[C@H](O)[C@H](C)O1 [Doxorubicin hydrochloride],scaled lipid accumulation score,,inactive: ≤ 0
same,scaled lipid accumulation score,[1],inactive: ≤ -0.001
COc1cccc2c1C(=O)c1c(O)c3c(c(O)c1C2=O)C[C@@](O)(C(=O)CO)C[C@@H]3O[C@H]1C[C@H](N)[C@H](O)[C@H](C)O1 [Doxorubicin (Adriamycin)],scaled lipid accumulation score,[2],inactive: 0.229
same,scaled lipid accumulation score,[1],inactive: ≤ 0
CC(C)N1Cc2cc(S(C)(=O)=O)ccc2N(CCN2CC=C(c3c[nH]c4cc(F)ccc34)CC2)S1(=O)=O,scaled lipid accumulation score,[1],inactive: 0.137
CCC(=O)O[C@@H](O[P@](=O)(CCCCc1ccccc1)CC(=O)N1C[C@H](C2CCCCC2)C[C@H]1C(=O)O)C(C)C [Fosinopril],scaled lipid accumulation score,library stock concentration: 3.5 mM,inactive: ≤ -0.006
CCCCC/C=C\C/C=C\CC/C=C\CCCC(=O)OC [Pinolenic Acid methyl ester],scaled lipid accumulation score,[3],inactive: ≤ 0
